These results are taken from the antibiotic and cytotoxicity screens of Wong et al. (2023).

This is one part of the list.

One experiment has as its system HSkMC. Description: cytotoxicity call (relative viability < 0.9). As to conditions: 10 µM.
Another experiment has as its system HepG2. In words: cytotoxicity call (relative viability < 0.9). The conditions noted are these: 10 µM.
For another experiment, the system named is S. aureus RN4220. In words: growth inhibition call (relative growth <= 0.2). The conditions noted are these: 50 µM.

Take `C[C@@H]1CN([C@H](C)CO)C(=O)c2cccc(NC(=O)NC3CCCCC3)c2O[C@@H]1CN(C)Cc1ccc(C(=O)Nc2ccccc2N)cc1`: the cytotoxicity call in the experiment with HSkMC and in the experiment on HepG2 was “inactive” in each case. Moreover, the growth inhibition call with S. aureus RN4220 was “inactive”.

Regarding `CCN(CC)Cc1ccc(Nc2ccnc3cc(Cl)ccc23)cc1O.Cl.Cl`, in the experiment on HSkMC, the cytotoxicity call was “inactive”. In addition, the cytotoxicity call in the experiment on HepG2 is “active”. The growth inhibition call with S. aureus RN4220 is “inactive”.

On to `C[C@H](CO)N1C[C@H](C)[C@@H](CN(C)S(=O)(=O)c2cn(C)cn2)Oc2ccc(NC(=O)CCCCCC(=O)Nc3ccccc3N)cc2CC1=O`, for which the cytotoxicity call in the experiment on HSkMC and in the experiment on HepG2 was “inactive” each time. Moreover, in the experiment on S. aureus RN4220, the growth inhibition call is “inactive”.

With `Cc1noc(C)c1NC(=O)N(C)C[C@H]1Oc2c(NC(=O)c3ccc(-c4nccs4)cc3)cccc2C(=O)N([C@H](C)CO)C[C@@H]1C`, the cytotoxicity call in the experiment on HSkMC and with HepG2 was “inactive” throughout. For the same compound, the growth inhibition call in the experiment on S. aureus RN4220 was “inactive”.

For `Nc1ccc(CCNc2ncnc3c2ncn3[C@@H]2O[C@H](CO)[C@@H](O)[C@H]2O)cc1`, the cytotoxicity call in the experiment with HSkMC and in the experiment on HepG2 was “inactive” each time. Further, the growth inhibition call with S. aureus RN4220 is “inactive”.

Take `COc1ccc(NC(=O)Nc2cccc3c2O[C@@H](CN(C)Cc2ccc(C(=O)Nc4ccccc4N)cc2)[C@@H](C)CN([C@H](C)CO)C3=O)cc1`: the cytotoxicity call in the experiment with HSkMC and in the experiment with HepG2 was “inactive” each time. The growth inhibition call in the experiment on S. aureus RN4220 is “inactive”.

For `Cc1ccc(S(=O)(=O)N(C)C[C@H]2OCCCC[C@@H](C)Oc3ccc(NC(=O)Nc4ccc(F)cc4)cc3C(=O)N([C@H](C)CO)C[C@@H]2C)cc1`, the cytotoxicity call in the experiment with HSkMC and in the experiment on HepG2 was “inactive” each time. In addition, in the experiment with S. aureus RN4220, the growth inhibition call is “inactive”.

As to `C[C@@H]1CCCCO[C@H](CN(C)S(=O)(=O)c2ccc(Cl)cc2)[C@H](C)CN([C@@H](C)CO)C(=O)c2cc(NC(=O)c3ccncc3)ccc2O1`, the cytotoxicity call with HSkMC and with HepG2 was “inactive” in each case. Moreover, the growth inhibition call in the experiment with S. aureus RN4220 is “inactive”.

For `COc1ccc(NS(=O)(=O)c2ccc(N)cc2)nn1`, the cytotoxicity call in the experiment on HSkMC and with HepG2 was “inactive” throughout. Further, in the experiment on S. aureus RN4220, the growth inhibition call was “inactive”.

For `CC(=O)NC1=NC(=O)CS1`, the cytotoxicity call in the experiment on HSkMC and in the experiment with HepG2 was “inactive” in each case. Also, in the experiment on S. aureus RN4220, the growth inhibition call is “inactive”.

`C[C@@H]1CCCCO[C@@H](CN(C)C(=O)CCCN(C)C)[C@H](C)CN([C@@H](C)CO)C(=O)c2cc(NC(=O)Nc3ccc(F)cc3)ccc2O1`: the cytotoxicity call with HSkMC and with HepG2 was “inactive” each time. For the same compound, the growth inhibition call in the experiment with S. aureus RN4220 was “inactive”.

In the case of `CN1CCN(C(=O)C[C@H]2CC[C@H]3[C@H](COc4ccc(NC(=O)c5cscn5)cc4C(=O)N3C)O2)CC1`, the cytotoxicity call in the experiment on HSkMC and in the experiment with HepG2 was “inactive” throughout. For the same compound, the growth inhibition call in the experiment on S. aureus RN4220 was “inactive”.

With `CCS(=O)(=O)Nc1ccc2c(c1)C(=O)N(C)[C@@H]1CC[C@H](CC(=O)NCCOC)O[C@H]1CO2`, the cytotoxicity call in the experiment with HSkMC and with HepG2 was “inactive” throughout. The growth inhibition call in the experiment on S. aureus RN4220 was “inactive”.

On to `Cc1noc(C)c1S(=O)(=O)Nc1ccc2c(c1)C(=O)N([C@@H](C)CO)C[C@@H](C)[C@@H](CN(C)Cc1ccccc1)OCCCC[C@H](C)O2`, for which the cytotoxicity call in the experiment on HSkMC and in the experiment on HepG2 was “inactive” throughout. Further, in the experiment with S. aureus RN4220, the growth inhibition call was “inactive”.

Consider `C[C@@H]1CN([C@@H](C)CO)C(=O)c2cc(NC(=O)CCCN(C)C)ccc2O[C@@H](C)CCCCO[C@@H]1CN(C)Cc1ccc(C(F)(F)F)cc1`, for which the cytotoxicity call in the experiment with HSkMC and in the experiment on HepG2 was “inactive” throughout. In addition, the growth inhibition call in the experiment on S. aureus RN4220 is “inactive”.

`C[C@@H]1CN([C@H](C)CO)C(=O)Cc2cc(NC(=O)Nc3ccc4c(c3)OCO4)ccc2O[C@H]1CN(C)Cc1ccc(C(F)(F)F)cc1`: the cytotoxicity call in the experiment with HSkMC and in the experiment on HepG2 was “active” each time. For the same compound, the growth inhibition call in the experiment with S. aureus RN4220 was “inactive”.

Consider `C[C@@H]1CCCCO[C@@H](CN(C)C(=O)Cc2ccccc2)[C@H](C)CN([C@H](C)CO)C(=O)c2cc(NC(=O)Nc3ccc(F)cc3)ccc2O1`, for which the cytotoxicity call in the experiment on HSkMC is “inactive”. For the same compound, the cytotoxicity call with HepG2 was “active”. Also, the growth inhibition call in the experiment on S. aureus RN4220 is “inactive”.

`Cc1noc(C)c1S(=O)(=O)N(C)C[C@@H]1Oc2ccc(NS(=O)(=O)c3cccs3)cc2C(=O)N([C@@H](C)CO)C[C@@H]1C`: the cytotoxicity call in the experiment with HSkMC and with HepG2 was “inactive” in each case. Besides, the growth inhibition call with S. aureus RN4220 is “inactive”.

In the case of `CCOC(=O)[C@H]1[C@@H]2C(=O)N3CCC[C@H]3[C@H](O[Si](C(C)C)(C(C)C)C(C)C)[C@H]2C=C2CCN(S(=O)(=O)c3ccc(C)cc3)C[C@H]21`, the cytotoxicity call in the experiment on HSkMC and in the experiment with HepG2 was “inactive” each time. Also, the growth inhibition call with S. aureus RN4220 was “inactive”.

On to `C[C@H]1CN([C@@H](C)CO)C(=O)Cc2cc(NC(=O)CCN3CCOCC3)ccc2O[C@@H]1CN(C)CC1CCCCC1`, for which the cytotoxicity call in the experiment with HSkMC and in the experiment on HepG2 was “inactive” each time. For the same compound, the growth inhibition call in the experiment with S. aureus RN4220 is “inactive”.

`C[C@@H]1CN([C@@H](C)CO)C(=O)c2cc(NS(=O)(=O)c3cccs3)ccc2O[C@@H]1CN(C)Cc1ccncc1`: the cytotoxicity call with HSkMC and in the experiment with HepG2 was “inactive” each time. For the same compound, the growth inhibition call in the experiment with S. aureus RN4220 was “inactive”.

As for `C[C@H]1CN([C@@H](C)CO)C(=O)Cc2cc(NS(=O)(=O)c3ccc(F)cc3)ccc2O[C@H]1CN(C)S(=O)(=O)c1cccs1`, the cytotoxicity call in the experiment with HSkMC and in the experiment with HepG2 was “inactive” each time. Further, in the experiment on S. aureus RN4220, the growth inhibition call is “inactive”.

Take `COc1ccc(NC(=O)Nc2ccc3c(c2)CC(=O)N([C@@H](C)CO)C[C@@H](C)[C@@H](CN(C)Cc2ccc(Oc4ccccc4)cc2)O3)cc1`: the cytotoxicity call in the experiment on HSkMC was “inactive”. Besides, in the experiment with HepG2, the cytotoxicity call is “active”. For the same compound, the growth inhibition call in the experiment on S. aureus RN4220 was “inactive”.

Turning to `CN1C(=O)c2cc(NC(=O)c3cnccn3)ccc2OC[C@@H]2O[C@H](CC(=O)N[C@H]3CCN(Cc4ccccc4)C3)CC[C@H]21`, the cytotoxicity call in the experiment with HSkMC and in the experiment with HepG2 was “inactive” in each case. Besides, the growth inhibition call in the experiment on S. aureus RN4220 was “inactive”.

Turning to `O=C(CS)NCCCCCCNC(=O)[C@@H]1C[C@@H]2C(=O)N[C@@H](Cc3ccccc3)C(=O)N2[C@@H]1c1cccc(OCCO)c1`, the cytotoxicity call in the experiment on HSkMC (human skeletal muscle cells) and in the experiment with HepG2 was “inactive” in each case. In addition, the growth inhibition call with S. aureus RN4220 is “inactive”.
